Hit rate of the full screen: of about 44,000 compounds, about 340 (0.77%) were called active. Another 5% or so got no clear call; they are omitted. The call rests on the fitted dose curve; in most records, active means well fitted inhibition curve with a large enough effect; inconclusive means small, poorly fitted or top-dose-only effect; inactive means flat fitted curve, though single readings scatter. This is one part of the list.
Assay: Acumen qHTS Assay for Inhibitors of the mTORC1 Signaling Pathway in MEF (Tsc2-/-, p53-/-) Cells: Sytravon; further: nearly all actives have a fitted effect of over 50% in size;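 on activity change, negative = inhibition: plate controls were DMSO for no effect and rapamycin for full effect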
Settings: phospho-rpS6 immunofluorescence/PI, 24 h; series mostly up to 38.3 µM; activity change, negative = inhibition: at the top concentration
Method in brief: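 Immunofluorescence of rpS6 phosphorylation in Tsc2-/-, p53-/- MEFs after 24 h compound exposure, normalized to propidium iodide signal. Activity is expressed as % positive cells, thresholded with 7.5 nM rapamycin.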
Potency means the concentration at half of the fitted maximal effect.

Row | Compound | activity change, negative = inhibition | Potency
1 | CC(C)(C)c1ccc(-c2nc(SCCOc3ccc(Cl)cc3)n3[nH]c(=O)cc3n2)cc1 | inactive: -8.28% | –
2 | Cc1ccccc1-n1c(SCC(=O)Nc2ccc(Cl)cc2Cl)nc(O)cc1=O | inactive: 7.94% | –
3 | CC(=O)N1CCc2c(sc3c2c(=O)n(-c2ccc(F)cc2)c(=O)n3Cc2cc(C)ccc2C)C1 | inactive: -5.58% | –
4 | CCc1sc(Nc2cccc(C)c2)nc1-c1cc2cccc(OC)c2oc1=O | inactive: -5.59% | –
5 | COc1ccc(-c2noc(-c3ccc(N4CCN(C)CC4)c([N+](=O)[O-])c3)n2)cc1 | inactive: 0.703% | –
6 | COc1ccc(S(=O)(=O)c2c(O)c(C)cc(NS(=O)(=O)c3ccc(Cl)cc3)c2C(C)C)cc1 | inactive: 3.24% | –
7 | COc1cc(C(=O)N2CCN(CCc3ccncc3)CC2)cc(OC)c1OC | inactive: -12.2% | –
8 | COc1cccc(-n2c(=O)c3c(C)c(C(=O)N(C)C)sc3n(Cc3cccc(C)c3)c2=O)c1 | inactive: -0.928% | –
9 | COc1ccc(-c2nc(C)c(CCNC(=O)C(=O)Nc3ccccc3F)s2)cc1 | inactive: 2.29% | –
10 | Cc1ccc(NC(=O)Cn2c(=O)n(CC3CCC(C(=O)NC(C)C)CC3)c(=O)c3sccc32)cc1 (centres undefined) | inactive: -12.2% | –
11 | COc1ccccc1-n1nc(-c2ccccc2)c2cnc3c(F)cc(F)cc3c21 | inactive: -15.4% | –
12 | COc1ccc(C(CNC(=O)COc2cc(C)cc(C)c2)N2CCCCC2)cc1 (centres undefined) | inactive: -15.5% | –
13 | COc1ccc(CCN2CCC(CNC(=O)c3cnn(-c4ccc(C)cc4)c3C3CCN(C(=O)OC(C)(C)C)CC3)CC2)cc1 | inactive: -17.2% | –
14 | Cc1ccc(NC(=O)CSc2nc3ccc(Br)cc3[nH]2)c(C)c1 | inactive: -11.5% | –
15 | CC1=C(c2ccc(C(C)C)cc2)S(=O)(=O)NC1=NCc1ccccc1C | inactive: 0.169% | –
16 | CN(C)CCN(C(=O)c1ccco1)c1nc2c(F)cc(F)cc2s1 | inactive: 0.969% | –
17 | CC1CCN(C(=O)CSc2c3c(nc4ccc(Cl)cc24)CCCC3)CC1 | inactive: -1.61% | –
18 | COc1ccc(S(=O)(=O)N(CC(=O)Nc2ccc(F)c(Cl)c2)c2ccc(C)cc2)cc1OC | inactive: -8% | –
19 | O=C(COc1ccc(F)cc1)Nc1nnc(S(=O)(=O)N2CCc3ccccc32)s1 | inactive: -0.369% | –
20 | Cc1nc2c3ccccc3nc(NNC(=O)CCC(=O)N3CCN(c4cccc(Cl)c4)CC3)n2n1 | inactive: 0.456% | –
21 | Cc1cccc(NC(=O)CSc2nc3ccccc3nc2N2CCC(C)CC2)c1 | inactive: -4.61% | –
22 | Cc1ccc(Nc2cc(C)nc(-n3nc(C)cc3C)n2)cc1 | inactive: -17.5% | –
23 | O=C(Nc1ccc(OC(F)(F)F)cc1)C1CCN(S(=O)(=O)c2ccc3[nH]c(=O)ccc3c2)CC1 | inactive: -3.73% | –
24 | Cc1ccc(-c2noc(CNC(=O)COc3cc(C)c(Br)c(C)c3)n2)cc1 | inactive: -0.758% | –

Row | Compound | activity change, negative = inhibition | Potency
25 | Cn1cnc(S(=O)(=O)N2CCC(C(=O)Nc3ccc(F)cc3F)CC2)c1 | inactive: 0% | –
26 | CCOc1ccc(CNC(=O)c2ccc3c(c2)sc2nc(-c4ccccc4)cn23)cc1 | inactive: 5.45% | –
27 | O=C(NC1CCCCC1)c1ccc2c(c1)N(Cc1cccc(F)c1)C(=O)c1ccccc1S2 | inactive: -1.54% | –
28 | O=C(NC1CCCCC1)c1ccc2c(c1)sc1nc(-c3ccc(F)cc3)cn12 | inactive: 8.25% | –
29 | Cc1ccc(-n2nc(C(=O)N3CCN(c4ccc(F)cc4)CC3)c(=O)n(C)c2=O)cc1 | inactive: 0.394% | –
30 | COc1ccc2nc(NC(=O)c3nc(S(=O)(=O)Cc4ccccc4F)ncc3Cl)sc2c1 | – | active: 14.7 µM
31 | COc1ccc(NCc2cc3cc4c(cc3n(CC(=O)Nc3cccc(F)c3)c2=O)OCO4)cc1 | inactive: 0.644% | –
32 | COC(=O)c1ccc(CSc2nc3c([nH]c4ccccc43)c(=O)n2-c2ccc(F)cc2)o1 | inactive: -6.49% | –
33 | Clc1ccccc1N1CCN(Cc2nnc(-c3ccccc3)o2)CC1 | inactive: 2.44% | –
34 | Cc1ccc(Cl)cc1-n1c(CCC(=O)O)ccc1-c1cccs1 | inactive: 3.26% | –
35 | COc1cc(OC)c(NC(=O)Cn2c(=O)c(C(F)(F)F)nc3ccccc32)cc1Cl | inactive: 1.13% | –
36 | CCc1cccc(NC(=O)Cn2c(=O)n(-c3ccccc3C)c(=O)c3c2c2cc(C)ccc2n3C)c1 | inactive: -0.556% | –
37 | Cc1ccc(CNC(=O)c2ccc(CS(=O)(=O)Cc3ccc(F)cc3)o2)cc1 | inactive: -9.4% | –
38 | CCCCc1nn2c(=O)cc(COC(=O)c3cccc(NC(=O)c4cccc(Cl)c4)c3)nc2s1 | inactive: 27.8% | –
39 | Cc1ccccc1CN1CCc2nc(N3CCN(c4ncccn4)CC3)ncc2C1 | inactive: -1.33% | –
40 | COc1ccc(CCCc2nnc(SCC(=O)Nc3cccc(C)c3)o2)cc1C | inactive: 3.37% | –
41 | CCCCN(C)CCCNC(=O)Cn1ncc2c3ccccc3n(Cc3cccc(Cl)c3)c2c1=O | inactive: -5.12% | –
42 | Cc1cccc(N2CCN(S(=O)(=O)c3cn(C)c(C)n3)CC2)c1C | inactive: -2.87% | –
43 | CCOc1ccccc1C(=O)Oc1c(S(=O)(=O)c2ccc(C)cc2)c(C)nn1-c1ccccc1 | inactive: 1.59% | –
44 | COc1cc(NC(=O)CSc2nc(-c3cccs3)cc(C(F)(F)F)n2)cc(OC)c1OC | inactive: -13% | –
45 | COc1cccc(-n2c(SCC(=O)N3CCc4ccccc43)nc3c([nH]c4ccccc43)c2=O)c1 | inactive: 3% | –
46 | O=C(Nc1ccc(F)cc1F)c1cccc2c1C(=O)N(C1CCCCC1)C2 | inactive: -6.37% | –
47 | Cc1cccc(CSc2nc3c(c(=O)[nH]2)CCC3)c1 | inactive: -2.59% | –
48 | CCc1ccc(C2CC(=O)c3c([nH]c(C(=O)OC4CCC(C)CC4)c3C)C2)cc1 (centres undefined) | inactive: -3.17% | –

Row | Compound | activity change, negative = inhibition | Potency
49 | CNC(=O)c1ccc2nc(CCc3ccccc3)oc2c1 | inactive: -3.76% | –
50 | COc1ccc(S(=O)(=O)NCc2cccn2Cc2cccc(C)c2)cc1Cl | inactive: 8.21% | –
51 | COc1ccc(-c2cc(C(F)(F)F)nc(SCC(=O)N3CCCCC3)n2)cc1OC | inactive: -5.39% | –
52 | CCc1cccc(C)c1NC(=O)C(CC)n1nc(C)c2c(C)n(-c3ccccc3)nc2c1=O (centres undefined) | inactive: -8.77% | –
53 | COc1ccc(-c2nc(SCC(=O)Nc3ccccc3)c(-c3ccc(F)cc3)[nH]2)cc1OC | inactive: 1.51% | –
54 | CCS(=O)(=O)N1CCc2cc(C(=O)N3CCN(c4ccc(OC)cc4)CC3)ccc21 | inactive: 1.79% | –
55 | COc1ccc(OC)c(S(=O)(=O)N2Cc3ccccc3CC2C(=O)Nc2ccc(C)cc2C)c1 (centres undefined) | inactive: -12.8% | –
56 | CCCCN(CC)CCCNC(=O)CN1C(=O)CSc2ccc(S(=O)(=O)N3CCOCC3)cc21 | inactive: 1.17% | –
57 | CCOC(=O)c1cc(-c2ccc(OC)c(S(=O)(=O)NC3CCCCC3)c2)on1 | inactive: 3.71% | –
58 | COc1ccc(CCNC(=O)CN2C(=O)COc3ccc(C)cc32)cc1OC | inactive: 1.93% | –
59 | CCN(C(=O)Cn1nc(Cc2ccncc2)c2ccccc2c1=O)c1cccc(Cl)c1 | inactive: 3.3% | –
60 | COc1ccccc1N(CC(=O)N1CCC(C)CC1)S(=O)(=O)c1ccc(C)cc1 | inactive: 1.9% | –
61 | CCc1ccc(Cn2c(CNS(=O)(=O)c3ccc([N+](=O)[O-])cc3)nc3cccnc32)cc1 | inactive: 0.576% | –
62 | COCCCNC(=O)c1c(-c2ccccc2)c(-c2ccccc2)nn(C)c1=O | inactive: -0.447% | –
63 | O=C(Nc1ccc2nc3n(c(=O)c2c1)CCCCC3)C(=O)Nc1ccccc1F | inactive: -7.67% | –
64 | COc1cc(NC(=O)c2nn(C)c3c2CS(=O)(=O)c2ccccc2-3)cc(OC)c1 | inactive: -6.63% | –
65 | Cc1cccc(Nc2nn3c(=O)c4cc5c(cc4nc3s2)OCO5)c1 | inactive: 5.17% | –
66 | CCn1nc(C)c(CCN(C)C(=O)Nc2ccc(C)c(Cl)c2)c1C | inactive: 7.61% | –
67 | Cc1ccc(C(=O)NCc2ccc3c(c2)CCN3C(=O)c2ccc(C)cc2)cc1 | inactive: 4.33% | –
68 | COCCNC(=O)c1ccc(-n2c(-c3ccccc3)cc3c2CCC(C)C3)cc1 (centres undefined) | inactive: 3.67% | –
69 | Cc1cc(Nc2cccc(Cl)c2)nc2ccc(NC(=O)Cc3ccc(Cl)cc3)cc12 | inactive: -11.7% | –
70 | COc1ccc(NC(=O)c2sc3nc4c(cc3c2N)CCCCCC4)c(OC)c1 | inactive: -12.8% | –
71 | COc1cc(N2C(=O)CSC23C(=O)N(Cc2cccc(F)c2)c2ccccc23)cc(OC)c1OC (centres undefined) | inactive: -11.3% | –
72 | CCN(CC)CCNC(=O)CN1C(=O)COc2ccc(S(=O)(=O)N3CCOCC3)cc21 | inactive: -1.12% | –

Row | Compound | activity change, negative = inhibition | Potency
73 | CCOC(=O)Cn1c(=O)n(CC2CCCO2)c2nc(-c3ccc(OCC)cc3)nc(C(N)=O)c21 (centres undefined) | inactive: -1.73% | –
74 | COc1ccc(CCNC(=O)c2ccc3c(c2)CCN3S(=O)(=O)c2ccccc2)cc1OC | inactive: -4.36% | –
75 | CCOc1ccccc1NC(=O)Cn1c(=O)n(Cc2ccccc2)c(=O)c2c1c1cc(C)ccc1n2C | inactive: 0.511% | –
76 | Cc1ccc(-n2ncc(C(=O)NCc3ccccc3)c2C2CCN(C(=O)OC(C)(C)C)CC2)cc1 | inactive: 6.24% | –
77 | Cc1cc(=O)n2c(C(=O)Nc3ccc(Br)cc3)c(C(=O)Nc3ccccc3)sc2n1 | inactive: 3.93% | –
78 | COc1ccccc1OCc1nnc(-c2ccccc2)o1 | inactive: -4.15% | –
79 | CCCCOC(=O)c1ccc(OC(=O)c2sc3ncn(Cc4ccccc4Cl)c(=O)c3c2C)cc1 | inactive: -3.95% | –
80 | Cc1ccc(Cl)cc1Nc1sc(C(=O)c2ccc(F)cc2)c(N)c1S(C)(=O)=O | inactive: -0.98% | –
81 | O=C(CSc1nc(=O)n(Cc2ccco2)c2c1CCC2)Nc1cccc(F)c1 | inactive: 0.941% | –
82 | CCOc1ccc(CNCCCSc2nnnn2C)cc1OC | inactive: -0.618% | –
83 | COc1cccc(CNC(=O)Cc2csc3nc(-c4ccccc4)cn23)c1 | inactive: -4.32% | –
84 | CCOc1ccc(NC(=O)Cn2cc(C(=O)c3ccc(OC)cc3)c(=O)c3cc4c(cc32)OCO4)cc1 | inactive: 11% | –
85 | COc1ccccc1N1CCN(C(c2ccc(Cl)cc2)c2nnc(-c3cccc(F)c3)o2)CC1 (centres undefined) | inactive: -21.5% | –
86 | O=C(Nc1ccc(Cl)c(-c2nc3ccccc3o2)c1)c1ccc(-c2cccc([N+](=O)[O-])c2)o1 | inactive: -1.59% | –
87 | CCCSc1oc(-c2ccco2)nc1S(=O)(=O)c1ccc(Cl)cc1 | inactive: -4.71% | –
88 | COc1ccccc1CNC(=O)c1cnc(N(C)C)nc1 | inactive: 0.298% | –
89 | COc1ccc(CC(=O)Nc2sc3c(c2C(=O)Nc2cccc(C)c2)CCCCC3)cc1 | – | active: 9.27 µM
90 | COc1cccc(N2CCN(C(=O)c3cc4c(=O)n(Cc5cccnc5)ccc4nc3C)CC2)c1 | inactive: 3.01% | –
91 | COc1ccc(NC(=O)Cn2c(SCc3ccc(F)cc3)nc3cccnc32)c(OC)c1 | inactive: -6.73% | –
92 | CC1CCn2c(nc3cc(C(=O)NCCc4ccccc4)ccc32)C1 (centres undefined) | inactive: 2.17% | –
93 | CCOc1ccc(C(=O)Nc2nc(-c3ccc(Br)cc3)ns2)cc1 | inactive: -11.4% | –
94 | COC(=O)c1ccccc1NC(=O)CCC(=O)N1CC(C)Sc2ccccc21 (centres undefined) | inactive: -12.2% | –

Source: PubChem BioAssay AID493208 (National Center for Advancing Translational Sciences (NCATS), 2011)
